Laboratory results: publication PMC4336329 (PLoS ONE, 2015)
The campaign covered roughly 310,000 compounds. About 2,200 (0.71%) showed an effect of 50% or more. Effects have a minus sign here. The list shows a part of the results.

What follows are compounds tested against human ether-à-go-go-related gene (hERG) potassium channel (human, UniProt Q12809) (assay: primary screen, population patch clamp on CHO cells stably expressing hERG).
human ether-à-go-go-related gene (hERG) potassium channel, sequence (Q12809 whole entry, looked up): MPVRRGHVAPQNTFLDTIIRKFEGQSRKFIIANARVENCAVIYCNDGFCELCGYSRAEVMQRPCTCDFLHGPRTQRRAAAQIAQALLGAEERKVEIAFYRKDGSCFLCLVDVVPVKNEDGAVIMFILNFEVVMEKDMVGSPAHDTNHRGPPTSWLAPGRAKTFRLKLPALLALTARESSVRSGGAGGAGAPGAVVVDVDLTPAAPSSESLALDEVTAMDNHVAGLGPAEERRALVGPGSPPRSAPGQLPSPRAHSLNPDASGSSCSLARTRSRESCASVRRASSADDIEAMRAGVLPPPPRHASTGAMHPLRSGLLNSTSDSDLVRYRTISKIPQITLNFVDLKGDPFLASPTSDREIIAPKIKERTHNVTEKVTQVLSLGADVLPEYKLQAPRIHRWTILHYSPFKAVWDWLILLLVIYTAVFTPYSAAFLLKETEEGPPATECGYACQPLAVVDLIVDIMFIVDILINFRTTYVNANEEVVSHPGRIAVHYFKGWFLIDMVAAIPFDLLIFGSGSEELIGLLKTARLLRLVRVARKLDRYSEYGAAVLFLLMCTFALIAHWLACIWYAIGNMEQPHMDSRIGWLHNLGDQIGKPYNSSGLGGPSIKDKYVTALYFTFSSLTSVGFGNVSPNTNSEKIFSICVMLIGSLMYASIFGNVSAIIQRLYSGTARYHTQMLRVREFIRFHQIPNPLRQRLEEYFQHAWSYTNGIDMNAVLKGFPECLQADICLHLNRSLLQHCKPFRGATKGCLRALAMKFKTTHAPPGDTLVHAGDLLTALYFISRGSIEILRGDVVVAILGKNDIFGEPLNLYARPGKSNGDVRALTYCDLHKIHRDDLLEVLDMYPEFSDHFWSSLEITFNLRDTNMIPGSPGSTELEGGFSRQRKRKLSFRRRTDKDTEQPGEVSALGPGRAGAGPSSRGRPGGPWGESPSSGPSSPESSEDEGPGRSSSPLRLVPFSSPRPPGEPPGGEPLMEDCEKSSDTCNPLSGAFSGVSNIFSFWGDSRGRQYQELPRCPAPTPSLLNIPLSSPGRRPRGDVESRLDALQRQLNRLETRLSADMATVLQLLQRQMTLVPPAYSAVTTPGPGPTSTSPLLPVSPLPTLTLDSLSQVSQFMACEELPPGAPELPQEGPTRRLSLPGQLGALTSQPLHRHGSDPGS

Compound	hERG current change (%, negative = inhibition) at 1uM
CC(=O)Oc1ccc2occ(C(=O)c3cccs3)c2c1	7.04%
COc1ccc(NC(=O)C2CC(c3c(F)cccc3Cl)=NO2)cc1OC (stereo not drawn)	12.2%
COC(=O)c1ccc(CN2CCc3ccccc32)cc1	16.2%
CC(Sc1nnc(-c2ccco2)n1N)C(=O)NCC1CCCO1 (stereo not drawn)	12.8%
COC(=O)c1ccccc1NC(=O)COC(=O)c1cccnc1	17.2%
COCCNC(=O)C(=O)NNS(=O)(=O)c1ccc(Cl)cc1	0.519%
COc1ccccc1CCC(=O)Nc1cccc(S(=O)(=O)N2CCOCC2)c1	7.47%
Nc1n[nH]c(N)c1N=Nc1cccc(C(F)(F)F)c1	13.3%
O=C(CN1C(=O)N/C(=C\c2ccccc2OCc2ccc(C(=O)O)cc2)C1=O)Nc1ccc(F)cc1	13.8%
CN(C(=O)CSc1nc2ccccc2c(=O)n1-c1ccc(F)cc1)C1CCS(=O)(=O)C1 (stereo not drawn)	5.93%
COc1ccc(-c2cc(N3C(=O)Nc4ccccc4N3O)n[nH]2)cc1	5.52%
CCOC(=O)C1CCCN(C2CCN(Cc3nc(Cc4ccccc4)no3)CC2)C1 (stereo not drawn)	-12.1%
Cc1ccc(-c2csc(Nc3ccc(S(N)(=O)=O)cc3)n2)o1	15.5%
COC(=O)C1=C(C(=O)OC)[C@@H]2N(C)c3ccc(OC)cc3[C@@]23C[C@@H](C(=O)OC)N(C(=O)NCCBr)C3=N1	11.5%
O=C(Nc1c2c(nn1-c1ccc(F)cc1)CS(=O)(=O)C2)C1CCCC1	18.7%
Cc1nn(Cc2ccc(C(=O)Nc3nccs3)cc2)c(C)c1Cl	19.6%
CCN(c1ccccc1)S(=O)(=O)c1ccc(Cl)c(C(=O)O)c1	1.2%
CC(C(=O)Nc1ccc(Br)cc1)N(C)CC(=O)NCc1ccco1 (stereo not drawn)	-10.3%
CCN(C(=O)CSc1nnc(Nc2cccc(C)c2C)s1)C1CCS(=O)(=O)C1 (stereo not drawn)	-5.06%
CCCc1nc2ccccc2n1CCOC	17.6%
COC(=O)CN1C(=S)N(c2ccc(F)cc2)C(=O)C1CC(=O)Nc1ccc(OC)cc1 (stereo not drawn)	7.75%
O=C(Nc1cccc(-c2cnc3ccccc3n2)c1)c1ccc(Cl)cc1	8.28%

Compound	hERG current change (%, negative = inhibition) at 1uM
Cc1ccc(C(=O)CN(C(=O)c2ccc(Cl)c(Cl)c2)N2C(=O)C3CCCCC3C2=O)cc1C (stereo not drawn)	4.65%
O=C1Cn2c(nc3ccccc32)N1c1cccc(C(F)(F)F)c1	-11.6%
Oc1oc(-c2ccco2)nc1C=Nc1ccccc1	-3.71%
Cc1ccccc1C(=O)Nc1cccc(NC(=O)c2ccc(F)cc2)c1	8.07%
CCOc1ccccc1N(CC(=O)N/N=C/c1cc(Br)ccc1OC)S(C)(=O)=O	15.8%
CN(Cc1ccccc1)S(=O)(=O)c1ccc(Cl)c(C(=O)OCC(N)=O)c1	8.64%
O=C1c2[nH]nc(-c3ccccc3O)c2C(c2ccccc2F)N1Cc1ccco1 (stereo not drawn)	10.2%
O=C(Nc1ccc2oc(-c3ccc4ccccc4c3)nc2c1)c1cccs1	-8%
COc1cc(-c2nc3cnccn3c2Nc2ccc3c(c2)OCCO3)ccc1O	4.76%
CNC(=S)N/N=C1\C2CN3CCN(C2)CC1(c1ccccc1)C3	8.25%
O=C(Cn1c(=O)oc2ccccc21)Nc1ccccc1N1CCOCC1	16.9%
CC1CCN(c2nc(/C=C/c3ccccc3)nc3ccccc23)CC1	4.11%
CC(=O)c1cc2c(cc1NC(=O)CN1CCN(c3cccc(C(F)(F)F)c3)CC1)OCO2.Cl	9.11%
N#C/C(=C\c1ccc2c(c1)OCO2)C(N)=S	12.1%
Cc1ccc(OCc2nc(-c3cccs3)no2)c([N+](=O)[O-])c1	9.49%
CC(C)(C)C(=O)NC1CC2CCCC(C1)N2C(=O)Nc1cccc(Cl)c1 (stereo not drawn)	15.7%
CCOC(=O)c1ccccc1NC(=O)CSc1nc2ccccc2n1CC(=O)N1CCCC1	-8.76%
O=C(NCc1ccc(Cl)cc1)c1cc2c(s1)CS(=O)(=O)C2	0.729%
CCc1ccc(OCCNC(=O)OCc2ccccc2)cc1	-1.74%
COc1ccc(N(CC(=O)N2c3ccccc3CC2C)S(=O)(=O)c2c(C)nn(C)c2C)cc1 (stereo not drawn)	9.21%
CCOc1cc([N+](=O)[O-])c2nc(N)sc2c1	8.66%
COC(=O)[C@H](Cc1ccccc1)NC(=O)c1ccc2ccccc2n1	0.182%

Compound	hERG current change (%, negative = inhibition) at 1uM
CN(C(=O)COC(=O)c1nc(-c2ccccc2)n(-c2ccccc2)n1)C1CCS(=O)(=O)C1 (stereo not drawn)	13.3%
CCOC(=O)Cc1[nH]nc2c1C(c1ccoc1)C(C#N)=C(N)O2 (stereo not drawn)	-5.52%
CC[n+]1c(C)cc(C)n1-c1ccccc1.[I-]	-5.8%
O=C(CSc1nnc(-c2ccccc2)n1-c1ccc(Cl)cc1)N/N=C/c1ccccc1C(=O)O	10.2%
COc1ccc(CCN2CNc3c(c(=O)n(C)c(=O)n3C)C2)cc1OC	15.4%
Cc1n[nH]c(=O)c2c(NC(=O)CSc3cc(Cl)ccc3Cl)oc(C)c12	3.6%
O=C(NCCN1CCOCC1)/C(=C\c1ccccc1Cl)NC(=O)c1ccccc1	3.33%
Cc1cc(C(=O)CN2C(=O)c3ccccc3S2(=O)=O)c(C)n1C(C)C	4.51%
O=C(NC1CCCCCCC1)C1CCN(S(=O)(=O)N2CCCC2)CC1	7.12%
Cc1ccc(C)c(OCc2nc3ccccc3[nH]2)c1	5.22%
CNC(=O)OCCc1nccn1C	4.15%
COc1cc(/C=C(\C#N)C(=O)NCc2ccccc2)ccc1OCc1ccc(C(=O)O)cc1	-3.89%
CCOc1ccc(N2C(=O)C3=C(C(c4ccc(Cl)cc4)=NCCN3)C2c2cccnc2)cc1 (stereo not drawn)	5.76%
CCN(Cc1ccccc1)S(=O)(=O)c1ccc(OC)cc1	1.72%
COc1ccc(-c2cn3c(C)c(C(=O)Nc4cccc(NC(C)=O)c4)sc3n2)cc1	6.17%
Cc1ccc2cc(/C=N/Nc3ccc(C(=O)O)cc3)c(Cl)nc2c1	10.5%
CC(=O)c1c(C)[nH]c(C(=O)OCC(=O)Nc2cccc(S(=O)(=O)N3CCCC3)c2)c1C	-1.02%
Cc1cc(C(=O)OCCN2C(=O)c3ccccc3C2=O)c2ccccc2n1	6.92%
C=CCC1(CC=C)CCCN1C(=O)c1cc(COc2cccc(C(F)(F)F)c2)on1	24.8%
CCc1ccc(NC(=O)Cn2nc(C(=O)O)c3ccccc3c2=O)cc1	18.5%
Cc1ccc(NC(=O)CC2SCCNC2=O)cc1Cl (stereo not drawn)	-21.8%
Br.CCn1c2c(c(=N)c3c1CCC3)CCC2	6.51%

Compound	hERG current change (%, negative = inhibition) at 1uM
CC(C)OC(=O)c1c(NC(=O)c2ccco2)sc2c1CCCCC2	9.25%
COc1cc(C2NC(=O)C(C#N)=C(Nc3cccc(C)c3)S2)ccc1O (stereo not drawn)	18.5%
O=C1NN=C(c2ccc(Br)cc2)CC1c1ccc(Cl)cc1 (stereo not drawn)	15.9%
Nc1nc(Nc2ccccc2F)nc(N2CCCC2)c1[N+](=O)[O-]	12.1%
COCCn1cc(C(=O)N2CCN(C)CC2)c2c3ccccc3n(C)c2c1=O	6.81%
COc1ccccc1NC(=O)NCC1(N(C)C)CCCCC1	12%
CCn1cc(C(=O)NCc2cccs2)c(=O)c2ccc(C)nc21	19.4%
CCCCNC(=S)N/N=C1\C(=O)c2cccc3cccc1c23	1.84%
COc1ccc(C(C#N)Nc2ccccc2C)cc1 (stereo not drawn)	-6.57%
O=C(CN1CCc2ccccc21)NC(=O)NC1CCCCC1	6.61%
Cc1c(C(=O)OCC(=O)Nc2ccc(N3CCOCC3)cc2)oc2ccccc12	12%
O=C(c1ccc([N+](=O)[O-])cc1)N1CCN(C(=O)c2cccnc2)CC1	12.8%
O=[N+]([O-])c1ccccc1/C=C/C=N/Nc1nc(N2CCCCC2)nc(N2CCCCC2)n1	-24.9%
COc1ccc(-c2c(-c3ccccc3)c(C(=O)C(=O)NCCCN(C)C)n3ccc4cc(OC)c(OC)cc4c23)cc1OC	15.2%
C/C(=N\NC(=O)c1ccccc1C)c1ccc(NC(=O)c2cccs2)cc1	3.27%
CCNC(=S)N1CCC(C(=O)c2ccc3c(c2)OCCO3)CC1	8.22%
Cc1cccc(NC(=O)C2CCCN(S(=O)(=O)c3cccs3)C2)c1C (stereo not drawn)	10.7%
CCOC(=O)COC(=O)c1ccc(Oc2cc(C)nc(SC)n2)cc1	-2.55%
C=CCNC(=O)C12CCC(C)(C(=O)C1Br)C2(C)C (stereo not drawn)	19.6%
O=C(Nc1oc2ccccc2c(=O)c1-c1ccc(Br)cc1)c1ccco1	2.63%
CCC(=O)Nc1cc(C(=O)O)ccc1Sc1ccc(Cl)cc1	-11.7%
